According to PubChem BioAssay AID1645882 (National Center for Advancing Translational Sciences (NCATS), 2021):
Out of some 16,000 compounds screened, about 120 (0.75%) were called active. Roughly 4% stayed inconclusive and do not appear here. Calls follow the shape of the dose curve; as a rule, active = well fitted inhibition curve with a large enough effect; inconclusive = small, poorly fitted or top-dose-only effect; inactive = no such curve, though single readings can be large or run the other way. Some of the results follow.

target: Rap guanine nucleotide exchange factor 3 (Homo sapiens) (UniProt O95398); assay: Validation qHTS for antagonist of cAMP-regulated guanine nucleotide exchange factor 3 (EPAC1); settings: EPAC1 Rap1B-BODIPY-GDP exchange, fluorescence; series mostly up to 150 µM; activity change, negative = inhibition: at the top concentration;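 also: plate controls were DMSO for no effect and ATA control for full effect; nearly all actives have a fitted effect of over 75% in size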
UniProt O95398, sequence (O95398 whole entry, looked up): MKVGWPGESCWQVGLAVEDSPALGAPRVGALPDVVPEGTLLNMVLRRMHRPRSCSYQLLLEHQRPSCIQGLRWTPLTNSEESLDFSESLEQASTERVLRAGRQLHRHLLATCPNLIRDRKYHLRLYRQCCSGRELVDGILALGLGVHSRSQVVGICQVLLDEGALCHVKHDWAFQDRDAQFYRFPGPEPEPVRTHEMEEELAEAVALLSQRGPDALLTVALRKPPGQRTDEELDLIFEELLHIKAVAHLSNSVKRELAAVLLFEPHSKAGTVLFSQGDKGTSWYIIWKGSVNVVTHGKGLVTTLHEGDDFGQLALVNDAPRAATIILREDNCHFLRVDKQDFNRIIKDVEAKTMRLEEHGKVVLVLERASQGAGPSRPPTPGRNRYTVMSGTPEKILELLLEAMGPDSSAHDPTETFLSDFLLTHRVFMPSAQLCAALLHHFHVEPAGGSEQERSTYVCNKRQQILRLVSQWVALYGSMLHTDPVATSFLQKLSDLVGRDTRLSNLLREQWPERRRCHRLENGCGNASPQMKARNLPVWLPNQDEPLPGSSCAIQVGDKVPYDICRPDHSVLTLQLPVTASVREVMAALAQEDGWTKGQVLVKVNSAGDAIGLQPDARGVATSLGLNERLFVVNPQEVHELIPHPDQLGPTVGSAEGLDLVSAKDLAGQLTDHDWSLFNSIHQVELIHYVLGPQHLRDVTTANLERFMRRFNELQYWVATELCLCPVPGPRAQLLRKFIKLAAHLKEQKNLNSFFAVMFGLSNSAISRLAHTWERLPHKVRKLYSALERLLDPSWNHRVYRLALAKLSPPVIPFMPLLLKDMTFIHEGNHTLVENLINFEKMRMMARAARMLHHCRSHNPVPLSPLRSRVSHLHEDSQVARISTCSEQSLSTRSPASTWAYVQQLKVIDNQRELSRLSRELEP
Summary of the method: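 Nucleotide exchange followed as fluorescence loss when BODIPY-GDP leaves Rap1B (480 nm excitation, 540 nm emission), read at 5 min intervals over 30 min. Reaction: 100 nM EPAC1, 250 nM RAP1B-BODIPY-GDP, 50 uM GDP; ATA and DMSO define normalization.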

Activity change, negative = inhibition, inactive:
Cn1cnc2c(NC3CCCC3)ncnc21 24.7%
CC/C(=C\c1ccccc1)c1cccc2oc3ccccc3c12 8.02%
CC(C)(C)C(O)/C=C/c1ccc2c(c1)OCO2 (stereo not given) 31.6%
Nc1cc(N2CCCCC2)nc(N)[n+]1OS(=O)(=O)[O-]
C[C@@H]1CC[C@@]2(OC1)OC1CC3C4CC=C5CC(O)CCC5(C)C4CCC3(C)C1[C@@H]2C (stereo not given in full) 8.3%
COc1ccc(CNc2ccnc(-c3ccccc3C(F)(F)F)n2)c(OC)c1 -5.59%
COc1c(O)cc2c(c1O)C1OC(CO)C(O)[C@H](O)[C@H]1OC2=O (stereo not given in full) 1.03%
CCn1c(-c2ccccc2F)nc2cc(NC(C)=O)cc(C(=O)NCc3ncc(C)[nH]3)c21 3.7%
COc1cc(=O)n2c(c1C(=O)NCc1ccco1)CCN(Cc1c(F)cccc1F)CC2 13.9%
C[N+]1(C)CC(O)[C@H](C(=O)[O-])C1 (stereo not given in full) 25.6%
Clc1ccc2nc[nH]c2c1 28.5%
COc1cc(-c2noc(C)c2C#CCO)cc(OC)c1OC 13%
O[C@@H]1CO[C@H]2[C@@H]1OC[C@@H]2O 18.5%
Cc1cc(-n2nc3ccc(Cl)cc3n2)c(O)c(C(C)(C)C)c1 4.91%
O=C([C@@H]1C[C@@H](Sc2nc3ccccc3[nH]2)CN1Cc1ccc(Cl)cc1)N1CCN(c2ccccc2F)CC1 9.89%
COc1ccc(C(=O)N2CCC3(CCCN(Cc4nccs4)C3)CC2)cc1 11.5%
COC1=C(OC)C(=O)c2ccccc2C1=O 3.08% [at 75.8 µM]
CS(=O)(=O)N1CCC2(CC1)CN(c1ccccn1)C2 20.9%
Oc1cc(-c2nc3ccccc3s2)cc2c1OCCN(Cc1cn[nH]c1-c1ccc(Cl)cc1)C2 4.53%
N#Cc1ccccc1-c1ccc2ncnc(NCc3cccs3)c2c1 20.9%
CC(C)C[C@@H](CN=[N+]=[N-])N1CCN(C)CCC1=O -6.63%
COc1cccc(Cn2c(=O)cnc3cnc(N4CCOCC4)nc32)c1 9.57%
O=C(c1cccc(F)c1)N1CCC2(CC1)CCN(c1ccccn1)CC2 13.7%
COCCn1c(=O)c(-c2ccc(Cl)cc2)nc2cnc(Oc3ccc(OC)cc3)nc21 0.9%
COc1ncc2nc(C)c(=O)n(Cc3ccc(F)cc3)c2n1 13.2%
Cc1cnc(CNc2ncnc3ccc(-c4cccc(C#N)c4)cc23)cn1 17.4%
OCC1OC(n2cnc3c(Cl)nc(Cl)nc32)C(O)C1O (stereo not given) 14.6%
CNc1ncncc1-c1ccccc1CN(C)C 11.8%
CC(=O)c1ccc(-c2cc(F)cc3c2OC(CNC(=O)C(C)N2CCOCC2)C3)s1 (stereo not given) 7.38%
CCCCCC1C(=O)CCC1CC(=O)O (stereo not given) 17.8%
CC(C)CCC[C@@H](C)[C@H]1CC[C@H]2[C@@H]3CC=C4C[C@@H](O)CC[C@]4(C)[C@H]3CC[C@]12C 16.4%
CC(C)C[C@H](NC(=O)[C@H](Cc1ccccc1)NC(=O)CNC(=O)CNC(=O)[C@@H](N)Cc1ccc(O)cc1)C(=O)N[C@@H](CCCN=C(N)N)C(=O)N[C@@H](CCCN=C(N)N)C(=O)N[C@@H](CCC(N)=O)C(=O)N[C@@H](Cc1ccccc1)C(=O)N[C@@H](CCCCN)C(=O)N[C@H](C(=O)N[C@H](C(=O)N[C@H](C(=O)O)[C@@H](C)O)C(C)C)C(C)C 8.64% [at 15.3 µM]
O=C(/C=C/c1ccccc1)OCc1ccccc1 -2.35%
COc1ccc(-c2nc3cnc(N4CCOCC4)nc3n(-c3ccc(OC)cc3)c2=O)cc1 -20.3%
O=C(CN1CCN(Cc2ccc3c(c2)OCO3)CC1)N1c2ccccc2Sc2ccccc21 -20.4%
Nc1ccn([C@@H]2O[C@H](CO)[C@@H](O)[C@H]2O)c(=O)n1 -4.45%
CN(C)CCC(c1ccccc1)c1ccccn1 (stereo not given)
COc1cccc(-c2ccc3ncnc(N(C)C)c3c2)c1 -21.5%
C=CC(C1=CC(=O)C(OC)=CC1=O)c1ccc(O)cc1 (stereo not given) 10.2%
CC1=CCC(C(C)(C)O)CC1 (stereo not given) 15.9%
COc1ccc(NC(=O)N2CC[C@@]3(CCCN(C(=O)c4ccncc4)C3)C2)cc1 16.2%
CNc1nc(-c2ccccc2Cl)nc2ccccc12 0.228%
CC(=O)ON(C(C)=O)c1ccc(/C=C2/C=Cc3ccccc32)cc1 1.7%
CN(C)C(=O)c1ccc(-c2cc(-n3ccnc3)ncn2)cc1 9.09%
C[C@H]1C[C@]2(O[C@@H]2C)C(=O)O[C@@H]2CCN(C)C/C=C(/COC(=O)[C@]1(C)O)C2=O 13.5%
CCSc1ccc2c(c1)N(CCCN1CCN(C)CC1)c1ccccc1S2 21.8% [at 75.8 µM]
O=C(c1csnn1)N1CCC2(CCCN(c3ccccc3)C2)CC1 0.413%
Cc1c(O)cccc1C(=O)N[C@@H](CSc1ccccc1)[C@H](O)CN1C[C@H]2CCCC[C@H]2C[C@H]1C(=O)NC(C)(C)C -2.53%
CCCCCCCCCCCCCCCCO 16.5%
CO/N=C(\C(=O)N[C@@H]1C(=O)N2C(C(=O)O)=C(CSc3nc(C)c(CC(=O)O)s3)CS[C@H]12)c1csc(N)n1 19.5%
CC(=O)Nc1cc(C(=O)N2CCc3c(Cl)cccc3C2)cc2ncn(CCc3ccccn3)c12 4.8%
CCN1/C(=C/C(C)=O)Sc2ccc(OC)cc21 7.75% [at 75.8 µM]
Cc1noc(C)c1-c1ccc2ncnc(Nc3ccccc3)c2c1 14.8%
C[C@H]1c2cccc(O)c2C(O)=C2C(=O)[C@]3(O)C(O)=C(C(N)=O)C(=O)[C@@H](N(C)C)[C@@H]3[C@@H](O)[C@@H]21
CS(=O)(=O)Nc1cccc(-c2nc(-n3ccnc3)c3ccccc3n2)c1 -15%
O=S1(=O)[C@H]2C[C@@H]3C=C[C@@]2(CN1Cc1cccc(C(F)(F)F)c1)O3 -0.554%
CO[C@@H]1[C@@H](OC)[C@H](C)[C@@](O)(CC(=O)O)O[C@H]1[C@H](C)[C@H]1O[C@@]2(CC[C@@](C)([C@H]3CC[C@@](C)([C@@H]4O[C@@H]([C@H]5O[C@](C)(O)[C@H](C)C[C@@H]5C)C[C@@H]4OC4C[C@H](OC)[C@@H](OC)[C@H](C)O4)O3)O2)C[C@H](O)[C@H]1C (stereo not given in full) 22.9%
CN(CC1COCCO1)C(=O)c1cnn(-c2ncc3c(n2)-c2ccccc2CCC3)c1C1CC1 (stereo not given) 6.91%
COc1ccccc1N1CCN(CC2CN3C(=O)N(C)c4ccccc4C3=N2)CC1 (stereo not given) 36.9%
C=CCc1ccccc1OCC(O)CNC(C)C (stereo not given)
